Assay results reported in the supplement of paper PMC11741623.
Some of the results follow. Interaction screen of human proteins with wild-type SARS-CoV-2 proteins by split-DHFR complementation in yeast, 1 µg/mL methotrexate. Value = fitness of the pair (three or more lineages) minus that of the viral protein without a human partner, on a scale set by negative (0) and fused positive (1) controls, mean of up to three cultures; higher = more likely to interact. Active = false discovery rate below 0.05 (one-sided t-test) in at least one culture. Nearly all pairs are not hits, and differences among them are mostly noise (correlation between cultures about 0.3); most hits were seen in one culture only. Human sequences are the Swiss-Prot entries looked up by gene name; the clone may be another isoform. NSP2 values were corrected by the authors for a growth advantage. Listed are human proteins with a hit and a random twelfth of the others.

Legend:
Assay in all cases: yeast fitness gain over the viral ORF with no human partner (scaled fitness); higher = more likely to interact
[1] = biological target: SARS-CoV-2 M
Method: (§1)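 Split mouse DHFR complementation in pooled diploid yeast: human ORFeome clones carry one fragment and viral ORFs the other; barcoded lineages compete in 1 µg/mL methotrexate and fitness is read by barcode sequencing in up to three cultures.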

[2] = biological target: SARS-CoV-2 NSP10
Method: as §1

[3] = biological target: SARS-CoV-2 NSP12
Method: as §1

[4] = biological target: SARS-CoV-2 NSP13
Method: as §1

[5] = biological target: SARS-CoV-2 NSP15
Method: as §1

[6] = biological target: SARS-CoV-2 NSP16
Method: as §1

[7] = biological target: SARS-CoV-2 NSP2
Method: as §1

[8] = biological target: SARS-CoV-2 NSP5
Method: as §1

[9] = biological target: SARS-CoV-2 NSP6
Method: as §1

[10] = biological target: SARS-CoV-2 NSP7
Method: as §1

[11] = biological target: SARS-CoV-2 NSP8
Method: as §1

[12] = biological target: SARS-CoV-2 NSP9
Method: as §1

[13] = biological target: SARS-CoV-2 ORF10
Method: as §1

[14] = biological target: SARS-CoV-2 ORF3A
Method: as §1

[15] = biological target: SARS-CoV-2 ORF3B
Method: as §1

[16] = biological target: SARS-CoV-2 ORF6
Method: as §1

[17] = biological target: SARS-CoV-2 ORF7A
Method: as §1

[18] = biological target: SARS-CoV-2 ORF7B
Method: as §1

[19] = biological target: SARS-CoV-2 ORF8
Method: as §1

[20] = biological target: SARS-CoV-2 ORF9B
Method: as §1

[21] = biological target: SARS-CoV-2 ORF9Bwu (the 73-codon ORF)
Method: as §1

[22] = biological target: SARS-CoV-2 S
Method: as §1

[23] = biological target: SARS-CoV-2 NSP14
Method: as §1

[24] = biological target: SARS-CoV-2 N
Method: as §1

[25] = biological target: SARS-CoV-2 NSP1
Method: as §1

Measured: yeast fitness gain

B1: GBP3, Q9H0R5 (protein)
chain: MAPEIHMTGPMCLIENTNGELVANPEALKILSAITQPVVVVAIVGLYRTGKSYLMNKLAGKNKGFSLGSTVKSHTKGIWMWCVPHPKKPEHTLVLLDTEGLGDVKKGDNQNDSWIFTLAVLLSSTLVYNSMGTINQQAMDQLYYVTELTHRIRSKSSPDENENEDSADFVSFFPDFVWTLRDFSLDLEADGQPLTPDEYLEYSLKLTQGTSQKDKNFNLPRLCIRKFFPKKKCFVFDLPIHRRKLAQLEKLQDEELDPEFVQQVADFCSYIFSNSKTKTLSGGIKVNGPRLESLVLTYINAISRGDLPCMENAVLALAQIENSAAVQKAIAHYDQQMGQKVQLPAETLQELLDLHRVSEREATEVYMKNSFKDVDHLFQKKLAAQLDKKRDDFCKQNQEASSDRCSALLQVIFSPLEEEVKAGIYSKPGGYCLFIQKLQDLEKKYYEEPRKGIQAEEILQTYLKSKESVTDAILQTDQILTEKEKEIEVECVKAESAQASAKMVEEMQIKYQQMMEEKEKSYQEHVKQLTEKMERERAQLLEEQEKTLTSKLQEQARVLKERCQGESTQLQNEIQKLQKTLKKKTKRYMSHKLKI
inactive: [1] -0.0431 | [2] -0.163 | [3] -0.000472 | [4] -0.0942 | [5] 0.00854 | [6] 0.0326 | [7] -0.204 | [8] 0.0136 | [9] -0.101 | [10] 0.00893 | [11] -0.185 | [12] -0.241 | [13] -0.074 | [14] -0.0664 | [15] 0.0529 | [16] -0.0621 | [17] -0.0835 | [18] 0.127 | [19] 0.0298 | [20] -0.0154 | [21] 0.0323 | [22] 0.0469

B2: IKBIP, Q70UQ0 (protein)
chain: MSEVKSRKKSGPKGAPAAEPGKRSEGGKTPVARSSGGGGWADPRTCLSLLSLGTCLGLAWFVFQQSEKFAKVENQYQLLKLETNEFQQLQSKISLISEKWQKSEAIMEQLKSFQIIAHLKRLQEEINEVKTWSNRITEKQDILNNSLTTLSQDITKVDQSTTSMAKDVGLKITSVKTDIRRISGLVTDVISLTDSVQELENKIEKVEKNTVKNIGDLLSSSIDRTATLRKTASENSQRINSVKKTLTELKSDFDKHTDRFLSLEGDRAKVLKTVTFANDLKPKVYNLKKDFSRLEPLVNDLTLRIGRLVTDLLQREKEIAFLSEKISNLTIVQAEIKDIKDEIAHISDMN
inactive: [1] -0.119 | [4] -0.316 | [23] -0.13 | [7] -0.246 | [8] 0.00655 | [11] 0.1 | [16] -0.0786 | [20] 0.0498 | [21] 0.023

B3: ING1, Q9UK53 (protein)
chain: MSFVECPYHSPAERLVAEADEGGPSAITGMGLCFRCLLFSFSGRSGVEGGRVDLNVFGSLGLQPWIGSSRCWGGPCSSALRCGWFSSWPPPSKSAIPIGGGSRGAGRVSRWPPPHWLEAWRVSPLPLSPLSPATFGRGFIAVAVIPGLWARGRGCSSDRLPRPAGPARRQFQAASLLTRGWGRAWPWKQILKELDECYERFSRETDGAQKRRMLHCVQRALIRSQELGDEKIQIVSQMVELVENRTRQVDSHVELFEAQQELGDTAGNSGKAGADRPKGEAAAQADKPNSKRSRRQRNNENRENASSNHDHDDGASGTPKEKKAKTSKKKKRSKAKAEREASPADLPIDPNEPTYCLCNQVSYGEMIGCDNDECPIEWFHFSCVGLNHKPKGKWYCPKCRGENEKTMDKALEKSKKERAYNR
inactive: [1] -0.17 | [3] -0.217 | [4] -0.385 | [7] -0.105 | [8] 0.00991 | [10] -0.258 | [11] -0.0458 | [12] -0.00398 | [15] -0.025 | [16] -0.0578 | [17] -0.11 | [19] 0.011 | [20] 0.181 | [21] -0.084 | [22] 0.0156

B4: KLHDC4, Q8TBB5 (protein)
chain: MGKKGKKEKKGRGAEKTAAKMEKKVSKRSRKEEEDLEALIAHFQTLDAKRTQTVELPCPPPSPRLNASLSVHPEKDELILFGGEYFNGQKTFLYNELYVYNTRKDTWTKVDIPSPPPRRCAHQAVVVPQGGGQLWVFGGEFASPNGEQFYHYKDLWVLHLATKTWEQVKSTGGPSGRSGHRMVAWKRQLILFGGFHESTRDYIYYNDVYAFNLDTFTWSKLSPSGTGPTPRSGCQMSVTPQGGIVVYGGYSKQRVKKDVDKGTRHSDMFLLKPEDGREDKWVWTRMNPSGVKPTPRSGFSVAMAPNHQTLFFGGVCDEEEEESLSGEFFNDLYFYDATRNRWFEGQLKGPKSEKKKRRRGRKEEPEGGSRPACGGAGTQGPVQLVKEVVAEDGTVVTIKQVLTAPGSAGQPRSEDEDSLEEAGSPAPGPCPRSNAMLAVKHGVLYVYGGMFEAGDRQVTLSDLHCLDLHRMEAWKALVEMDPETQEWLEETDSEEDSEEVEGAEGGVDDEDSGEESGAED
inactive: [1] -0.147 | [24] -0.169 | [25] 0.0742 | [2] -0.0439 | [3] 0.0326 | [4] -0.00396 | [6] -0.1 | [7] 0.127 | [8] -0.0146 | [9] -0.0156 | [10] 0.0633 | [11] 0.0395 | [12] -0.234 | [13] -0.0376 | [14] 0.0951 | [15] 0.0524 | [16] -0.0199 | [17] -0.0206 | [18] 0.0385 | [19] 0.0017 | [20] -0.0253 | [21] -0.141 | [22] -0.0719
